Screen size: about 410,000 compounds; about 7,200 (1.8%) were called active. Inconclusive means that the source gave no clear call. Such entries were picked first, then a sample of the others. The call rests on the fitted dose curve; in most records, active means well fitted activation curve with a large enough effect; inconclusive means small, poorly fitted or top-dose-only effect, or another doubt; inactive means no such curve, though single readings can be large or run the other way. Potencies of inconclusive entries are left out as doubtful fits.
Test: qHTS of TDP-43 Inhibitors; further: nearly all actives have a fitted effect of over 50% in size; on growth rescue (activation): % of control where 0% means no effect
Settings: TDP-43 expressing yeast growth rescue, BacTiter-Glo, 24 h; growth rescue (activation): at 46.1 µM (top of the series) unless noted
Summary of the method: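 Galactose-induced TDP-43 yeast, OD600=0.02, compound pinned; 24 hr, 30 deg C; BacTiter-Glo luminescence for growth. Inhibitors of TDP-43 toxicity read as activators.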
With COc1ccc(Br)cc1C(=O)Nc1nnn(C)n1 the “growth rescue (activation)” value was inactive: 6.82%. For CCCS(=O)(=O)c1ncc(Cl)c(C(=O)N2CCN(c3ccc(OC)cc3)CC2)n1, the Potency was active: 14.1 µM. For O=[N+]([O-])c1ccc(-n2nncc2-c2ccccc2)cc1, the Potency was inconclusive [activator, single point]. With COc1cc(NC(=O)c2cc(C(C)C)on2)cc(OC)c1OC the Potency was inconclusive [activator, single point]. For COc1ccc(-c2cc3nc(NCc4ccc(C)cc4C)n(C)c(=O)c3s2)cc1OC, the Potency was inconclusive [activator, single point]. In the case of Cc1ccc(NC(=O)CCn2c(=O)oc3ccccc32)cc1, the Potency is reported as inconclusive [activator, single point]. In the case of Cc1ccc(NC(=O)CSCc2cnn(-c3ccccc3)c2-n2cccc2)c(C)c1, the Potency is reported as inconclusive [activator, single point]. For CCOc1cccc2sc(N(Cc3cccnc3)C(=O)C3CCCCC3)nc12, the Potency was inconclusive [activator, single point]. For O=C(Nc1cccnc1Cl)c1ccc(S(=O)(=O)N2CCCCCC2)cc1, the Potency was inconclusive [activator, single point]. In the case of CCOC(=O)C1=C(N)OC2=C(C(=O)CC(C)(C)C2)C1C1CCCCC1 (centres undefined), the Potency is reported as inconclusive [activator, partial curve]. For Cc1cc(OC(C)C(=O)N(Cc2ccco2)Cc2ccccc2F)cc(C)c1Cl (centres undefined), the “growth rescue (activation)” value was inactive: -6.63%. In the case of O=C(CCCCn1c(=O)c2ccccc2n(Cc2ccc(Cl)cc2)c1=O)NCc1ccccc1Cl, the “growth rescue (activation)” value is reported as inactive: 14.4%. With O=C(Nc1cnccn1)Nc1ccc(Cl)cc1Cl the “growth rescue (activation)” value was inactive: 15.8%. In the case of COc1ccc(NC(=O)C2CCCN(C(=O)c3cnn(-c4ccc(F)cc4)c3-n3cccc3)C2)cc1 (centres undefined), the Potency is reported as inconclusive [activator, partial curve, poor fit]. With COc1cccc(C(=Cc2ccc([N+](=O)[O-])cc2)C(=O)O)c1 the Potency was inconclusive [activator, full curve, poor fit]. In the case of O=C(Nc1c(F)cc(F)cc1Br)c1cc(-c2ccc(O)cc2)on1, the Potency is reported as active: 11.2 µM. For CCc1nnc(NC(=O)c2cc(-c3ccc(C)o3)nc3ccccc23)s1, the Potency was inconclusive [activator, single point]. For O=C(O)c1cccc(NN=C2c3ccccc3-c3ccccc32)c1, the growth rescue (activation) was inconclusive: -90.3% [activator]. With O=C(c1cc([N+](=O)[O-])ccc1Cl)N1CCN(c2ccccc2)CC1 the Potency was active: 7.94 µM. In the case of CC1(C)CC(=O)C(C(=O)c2ccccc2)C(=O)C1Cl (centres undefined), the Potency is reported as inconclusive [activator, partial curve]. With Cc1cc(C(=O)N2CCCC(N3CCN(c4ccc(F)cc4)CC3)C2)c(C)o1 (centres undefined) the Potency was inconclusive [activator, single point]. For CSc1ncccc1C(=O)OCC(=O)N(CC(C)C)C1CCS(=O)(=O)C1 (centres undefined), the Potency was inconclusive [activator, full curve, poor fit]. With CCOCC(=O)Nc1nc2c(s1)C(=O)CC(C)(C)C2 the Potency was inconclusive [activator, partial curve, poor fit]. With Cc1cccc(NC(=O)C2CCCN(S(=O)(=O)c3cccc4nonc34)C2)c1C (centres undefined) the “growth rescue (activation)” value was inactive: 6.82%. With Cc1cc(NC(=O)COC(=O)c2ccccc2[N+](=O)[O-])no1 the “growth rescue (activation)” value was inactive: 0%. With CCn1ccc2cc(S(=O)(=O)N3CCCN(C(=O)Nc4ccccc4OC)CC3)ccc21 the Potency was inconclusive [activator, single point]. In the case of CC(=O)NCCNc1nc(NCC2CC2)nc2cc(-c3ccccc3)sc12, the Potency is reported as inconclusive [activator, full curve, poor fit]. In the case of Cc1ccc2oc(-c3ccco3)nc2c1, the “growth rescue (activation)” value is reported as inactive: 1.21%. In the case of COc1ccc(C2=NN(c3nc4ccccc4s3)C(=O)C2)cc1, the Potency is reported as inconclusive [activator, single point]. For COc1ccc(NC(=O)c2sc3nc(N4CCCC4)c4c(c3c2N)CC(C)(C)OC4)cc1, the Potency was inconclusive [activator, partial curve]. With O=S(=O)(NCCSc1ccccc1)c1cccs1 the Potency was inconclusive [activator, partial curve]. With CNC(=S)N/N=C1\C(=O)c2cccc3cccc1c23 the Potency was inconclusive [activator, partial curve]. In the case of CC1(C(=O)Nc2ccc3c(c2)OCO3)CCN1C(=O)C1CCCCC1 (centres undefined), the Potency is reported as inconclusive [activator, partial curve]. With COc1cc(Cl)c(C)cc1NC(=O)Cc1ccc(OC)c(OC)c1 the Potency was inconclusive [activator, partial curve]. With Oc1cc2c(cc1O)CN(C(=S)NCCc1ccc(Cl)cc1)CCC2 the Potency was inconclusive [activator, single point]. In the case of Nc1c(C(=O)N2CCCCC2)sc(=S)n1-c1ccccc1, the “growth rescue (activation)” value is reported as inactive: 19.3%. For Cc1c(Cl)cccc1-n1ncc(C(=O)N2CCc3ccccc3C2)c1C1CCN(C(=O)OC(C)(C)C)CC1, the “growth rescue (activation)” value was inactive: 12.1%. With CCOCCCNC(=O)/C(C#N)=C/c1ccc([N+](=O)[O-])o1 the growth rescue (activation) was inconclusive: -92.6% [activator]. For Cc1cc(C(=O)COc2cc(F)ccc2[N+](=O)[O-])c(C)n1CC1CCCO1 (centres undefined), the Potency was inconclusive [activator, partial curve]. With Cc1ccc(Nc2nnns2)cc1C the Potency was inconclusive [activator, partial curve]. With CC(Sc1ccc2ccccc2n1)C(=O)O (centres undefined) the Potency was active: 11.2 µM. For Cc1ccc(S(=O)(=O)N2[C@@H](c3cccc(C)c3)C(C(=O)O)=C[C@H]2CC2CCCC2)cc1, the Potency was inconclusive [activator, partial curve]. For O=C(CCn1cnc2onc(-c3ccc(F)cc3)c2c1=O)N1CCN(c2ccc(F)cc2)CC1, the Potency was inconclusive [activator, single point]. With CCN1CCN(Cc2cc(=O)oc3cc4c(cc23)CCC4)CC1 the Potency was inconclusive [activator, partial curve].

Reference: PubChem BioAssay AID652104 (National Center for Advancing Translational Sciences (NCATS), 2013)
Potency means the concentration at half of the fitted maximal effect; tags describe the fitted curve by direction and shape.
